From PubChem BioAssay AID651820 (National Center for Advancing Translational Sciences (NCATS), 2012)
Out of some 340,000 compounds screened, about 12,000 (3.5%) were called active. The shares of active, inactive and inconclusive entries below differ from those in the screen. The call rests on the fitted dose curve; in most records, active means well fitted inhibition curve with a large enough effect; inconclusive means small, poorly fitted or top-dose-only effect, or another doubt; inactive means no such curve, though single readings can be large or run the other way. No potency is given beside an inconclusive call; the fits are too rough.

Experiment: qHTS Assay for Inhibitors of Hepatitis C Virus (HCV)
Conditions: Huh7.5.1 HCVcc-Cre (HCVcc is cell-culture hepatitis C virus) infection, luciferase reporter, 44 h; activity change, negative = inhibition: at 41.8 µM (top of the series) unless noted
Method in brief: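 A cell-based infection assay in which seeded cells (1,000 per well) receive test compound after 4 h, are inoculated with HCVcc-Cre at approximately 0.5 moi, and are incubated 44 h before luminescence detection.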
On the % scale 0 is the no-effect control and ±100 the full control effect; potency means the concentration at half of the fitted maximal effect; tags describe the fitted curve by direction and shape.

SMILES | Potency | activity change, negative = inhibition
COc1ccc(C(=O)/C=C/C(=O)N(Cc2ccccc2OC)C(C(=O)NC2CCCCC2)c2ccncc2)c(O)c1 (configuration not stated) | inconclusive [inhibitor, single point] | –
CCOc1cc(-c2nccc3cc(OC)c(OC)cc23)cc(OCC)c1OCC | inconclusive [inhibitor, partial curve, poor fit] | –
N#CC1=C(N)Oc2cc3ccccc3cc2C1c1cccnc1 (configuration not stated) | inconclusive [inhibitor, partial curve] | –
CC(=O)/C=C\c1cn(-c2ncc(C(F)(F)F)cc2Cl)c2ccccc12 | inconclusive [inhibitor, single point] | –
Cc1nnc(NC(=O)CCSCCC(=O)Nc2nnc(C)s2)s1 | – | inactive: 16.5%
COc1ccc(-c2ccc3oc(-c4ccsc4)cc3c2)cc1 | – | inactive: 14.3%
COc1ccc(S(=O)(=O)CCC(=O)Nc2ccc(OC)cc2OC)cc1 | – | inactive: 7.07%
Cc1ccc(C(=O)NCCc2c[nH]c3ccccc23)s1 | inconclusive [inhibitor, single point] | –
Cc1ccc(N2C(=O)NC(=O)C(CCc3ccccn3)(Cc3cccc(Cl)c3Cl)C2=O)cc1 (configuration not stated) | – | inactive: 7.21%
C#Cc1ccc(CN2CCN(CCCc3ccccc3)C(CCO)C2)cc1 (configuration not stated) | – | inactive: -26.9%
O=C(NCCc1ccc(Cl)cc1)C1CCCN(c2ncnc3c2nc2n3CCCCC2)C1 (configuration not stated) | inconclusive [inhibitor, single point] | –
COc1ccc(NC(=O)c2sc3nc(C)nc(N4CCN(c5ccccn5)CC4)c3c2C)cc1Cl | inconclusive [inhibitor, partial curve, poor fit] | –
Cn1c2c(c(O)c(-c3ccccc3)c1=O)C(=O)CC(C)(C)C2 | – | inactive: 3.39%
Cc1ccc(N2CCN(Cc3ccccc3)CC2=O)c(C)c1 | inconclusive [inhibitor, single point] | –
COc1ccccc1CCNC1CCC(C(C)(C)C)CC1 (configuration not stated) | inconclusive [inhibitor, single point] | –
O=C(CCc1ccccc1)Nc1ccccc1 | – | inactive: 10.8%
O=C(c1cccs1)N1CCC(N2CCN(c3ccccc3)CC2)CC1 | – | inactive: -5.57%
CN(Cc1nccn1C)C(=O)c1cc(COc2ccc3ncccc3c2)on1 | inconclusive [inhibitor, single point] | –
CCCc1cc(C(=O)Nc2ccn(Cc3ccc(C)cc3)n2)no1 | inconclusive [inhibitor, single point] | –
CC[n+]1c(/C=C2\Sc3ccccc3N2C)ccc2cccc(C)c21 | active: 2.82 µM | –
COc1cccc(CCN2CCC(CNS(=O)(=O)c3cc(-c4cc(C)no4)ccc3OC)CC2)c1 | active: 7.94 µM | –
COc1cccc(NC(=O)c2cc(S(=O)(=O)N3CCc4ccccc43)cn2C)c1 | inconclusive [inhibitor, partial curve] | –
CCC(=O)Nc1ccc(Br)c(Cl)c1 | – | inactive: -20.4%
CN(C)CCCNc1ccc(-c2n[nH]c(=O)c3ccccc23)cc1[N+](=O)[O-] | inconclusive [inhibitor, single point] | –
COc1ccc(/C(N)=N/OC(=O)C2CCC(=O)N2S(=O)(=O)c2ccc(C)cc2)cc1 (configuration not stated) | – | inactive: 0.332%
COc1ccc(CN(CCN(C)C)c2ccccn2)cc1 | inconclusive [inhibitor, single point] | –

SMILES | Potency | activity change, negative = inhibition
N#CC(c1ccccc1)c1ccc(C(=O)c2ccc(F)cc2)cc1 (configuration not stated) | inconclusive [inhibitor, single point] | –
Cc1ccccc1C(=O)N1CCN(c2ccc(NC(=S)NC(=O)c3cccs3)cc2)CC1 | inconclusive [inhibitor, single point] | –
CC(C)(C)c1cc(CCC(=O)NNC(=O)c2ccco2)cc(C(C)(C)C)c1O | inconclusive [inhibitor, single point] | –
O=S(=O)(c1ccccc1)N1CCN(Cc2ccc(Cl)cc2)CC1 | – | inconclusive: -39.6% [inhibitor]
Nc1ncn([C@@H]2O[C@H](CO)[C@@H](O)[C@H]2O)c(=O)n1 | inactive | –
COc1nc(NCCO)nc(Nc2cc(Cl)ccc2OC)n1 | – | inactive: -29%
O=c1nc(NO)ccn1C1CCCO1 (configuration not stated) | – | inactive: 12.9%
CC(=O)Nc1ccc(S(=O)(=O)N(C)c2ccc(OCCOc3ccccc3F)cc2)cc1 | active: 10 µM | –
Cc1cccc(NS(=O)(=O)c2ccc(C)c(C(=O)NCC(c3ccccc3)N(C)C)c2)c1 (configuration not stated) | inconclusive [inhibitor, partial curve] | –
O=C(NCCc1ccccc1)c1ccc(Cl)c([N+](=O)[O-])c1 | inconclusive [inhibitor, single point] | –
C=CCC(=O)NC1CC(C)(C)Cc2c1cnn2-c1ccccc1C (configuration not stated) | – | inactive: -0.969%
CCN1CCN(C(=O)C2c3cc(OC)c(OC)cc3C(=O)N3CCc4ccccc4C23)CC1 (configuration not stated) | – | inactive: 1.08%
O=C1CC(=O)N(CCNc2ncc(C(F)(F)F)cc2Cl)C(=O)N1 | – | inactive: 11.5%
O=C(Nc1ccncc1)C1CCN(S(=O)(=O)c2ccccc2)CC1 | – | inactive: -10%
CCOCCCNC(=S)NCCCNc1nc2cc3c(cc2cc1C#N)OCO3 | inconclusive [inhibitor, full curve] | –
CCC(C)NC(=O)c1ccc(NC(=O)C2CCCO2)cc1 (configuration not stated) | inconclusive [inhibitor, single point] | –
Cc1[nH]c2ccccc2c1C(=O)CN1CCCCC1C (configuration not stated) | – | inactive: 4.09%
Cc1nnc2c3ccccc3c(-c3ccc(O)cc3)nn12 | – | inactive: 15%
NCCc1c(-c2ccccc2)n(-c2ccccc2)c2ccccc12 | active: 11.2 µM | –
COC(=O)C1=C(C)N(c2ccc(Cl)cc2)/C(=C/c2ccc(O)cc2)C1=O | inconclusive [inhibitor, single point] | –
CSc1cccc(NC(=O)CSc2ncccc2C(=O)Oc2cccc([N+](=O)[O-])c2)c1 | – | inactive: 1.84%
CN(CC(=O)N1CCN(c2ccc(F)cc2)CC1)S(=O)(=O)c1ccc2c(c1)c(=O)n(C)c(=O)n2C | – | inactive: -16.2%
Cc1c(C(=O)NCC2COc3ccccc3O2)oc2ccc(S(=O)(=O)N3CCOCC3)cc12 (configuration not stated) | active: 5.62 µM | –
CCS(=O)(=O)N1CCC(C(=O)Oc2ccccc2OC)CC1 | – | inactive: 14%
CN(C)S(=O)(=O)c1cc(NC(=O)CNCc2ccccc2)ccc1Cl | inconclusive [inhibitor, single point] | –
Clc1cc(Br)ccc1OCCCn1ccnc1 | inconclusive [inhibitor, single point] | –

SMILES | Potency | activity change, negative = inhibition
CCC(C)N(C(=O)COc1ccccc1C(=O)NCc1ccccc1)C1CCS(=O)(=O)C1 (configuration not stated) | inconclusive [inhibitor, partial curve] | –
CS(=O)(=O)Nc1ccccc1C(=O)NCc1ccccc1Cl | inconclusive [inhibitor, partial curve, poor fit] | –
Cc1ccc(Cn2nc(C)c(NC(=O)c3noc4c3CCCCC4)c2C)cc1 | inconclusive [inhibitor, partial curve, poor fit] | –
Cc1ccc(C)c(CSC2=NCCN2S(=O)(=O)c2ccccc2)c1 | inconclusive [inhibitor, single point] | –
Cc1ccccc1NC(=O)C1CC(=O)N(c2ccc3c4c(cccc24)CC3)C1 (configuration not stated) | – | inactive: -11.1%
Cc1ccc(S(=O)(=O)Nc2ccc3c(c2)OCCO3)c(C)c1NS(C)(=O)=O | – | inactive: -5.48%
O=C(/C=C/c1cccnc1)c1ccc(O)cc1 | – | inactive: -14.5%
CCc1ccc(CN(C)CC(=O)Nc2sccc2C#N)cc1 | inconclusive [inhibitor, single point] | –
Cc1sc2ncnc(SCC(=O)c3ccc4c(c3)OCCO4)c2c1-c1ccccc1 | inconclusive [inhibitor, single point] | –
COc1ccc(-n2c(SC)nc3ccccc3c2=O)cc1 | – | inactive: -26.9%
S=C(NCc1ccccc1)NC1CCCc2ccccc21 (configuration not stated) | – | inactive: -6.26%
CCOc1cc(C(=O)OCc2ccc(OC)cc2)ccc1OCC(=O)N1CCOCC1 | inconclusive [inhibitor, partial curve] | –
Fc1ccccc1CN1CCCN(C(=S)Nc2cccc(Cl)c2)C1 | inconclusive [inhibitor, partial curve] | –
O=C(c1ccc(CS(=O)(=O)c2ccccc2)o1)N1CCOCC1 | – | inactive: 2.75%
Cc1ccc(NS(=O)(=O)c2ccc(NC(=O)CN(c3cc([N+](=O)[O-])ccc3C)S(C)(=O)=O)cc2)c(C)c1 | inconclusive [inhibitor, single point] | –
CCCCOc1ccc(CSc2ncn[nH]2)cc1 | – | inactive: -0.739%
CCOC(=O)c1cc(-c2ccccc2C)n(Cc2cc(C)no2)n1 | – | inactive: -15.8%
O=C(N/N=C1\CCCc2c1[nH]c1ccc([N+](=O)[O-])cc21)c1ccncc1 | inconclusive [inhibitor, full curve] | –
C/C(=N\N=c1/scc(C)n1Cc1ccco1)c1cccc([N+](=O)[O-])c1 | inconclusive [inhibitor, single point] | –
Cc1ccc(OCc2nc(-c3ccccc3)no2)cc1 | – | inactive: -1.13%
CCOC(=O)c1ccc(NC(=S)N2CCN(C)CC2)cc1 | – | inactive: 4.55%
CC(=O)N1CCN(c2ccccc2NC(=O)COc2cc(C)ccc2C(C)C)CC1 | inconclusive [inhibitor, single point] | –
Cc1ccc(C23CC4CC(CC(CN)(C4)C2)C3)cc1 | inconclusive [inhibitor, single point] | –
CCOc1ccc(NC(=O)Cn2nnc(C(=O)NCc3ccc(OC)cc3)c2N)cc1 | – | inactive: 12.3%
Cc1cc(C)c(N=Cc2c(O)n(-c3nccs3)c(=O)c3ccccc23)c(C)c1 | inconclusive [inhibitor, single point] | –
